Assay results from PubChem BioAssay AID588795 (National Center for Advancing Translational Sciences (NCATS), 2011).
Where “and” joins values, the source holds several entries; their conditions need not be identical. Identical values can stand only once. Hit rate of the full screen: of about 390,000 compounds, about 1,400 (0.36%) were called active. The inconclusive results got no clear call from the source; some entries with a clear call stand among them for comparison. Calls come from the whole dose curve; as a rule, active = well fitted inhibition curve with a large enough effect; inconclusive = small, poorly fitted or top-dose-only effect; inactive = no such curve, though single readings can be large or run the other way. Potencies of inconclusive entries are doubtful fits and often do not repeat.

target: Flap endonuclease 1 (Homo sapiens) (UniProt P39748); test: qHTS Assay for the Inhibitors of Human Flap endonuclease 1 (FEN1).; note: nearly all actives have a fitted effect of over 65% in size; settings: Recombinant FEN1 flap cleavage, fluorescence, 15 min; series mostly up to 114 µM; activity change, negative = inhibition: at the top concentration
Sequence of UniProt P39748 (P39748 whole entry, looked up): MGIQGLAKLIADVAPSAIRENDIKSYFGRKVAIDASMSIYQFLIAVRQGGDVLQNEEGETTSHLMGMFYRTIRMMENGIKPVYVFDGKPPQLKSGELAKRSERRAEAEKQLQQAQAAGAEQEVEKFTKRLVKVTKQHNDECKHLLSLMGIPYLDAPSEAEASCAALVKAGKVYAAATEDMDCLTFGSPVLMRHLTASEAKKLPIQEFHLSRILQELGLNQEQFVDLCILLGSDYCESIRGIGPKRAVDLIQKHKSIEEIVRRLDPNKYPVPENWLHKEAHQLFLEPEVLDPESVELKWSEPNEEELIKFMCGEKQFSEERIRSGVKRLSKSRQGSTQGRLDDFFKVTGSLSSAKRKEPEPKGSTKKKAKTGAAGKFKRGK
Method in brief: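 Concentration–response screening of FEN1 (10 nM): 15 min compound preincubation at room temperature, reaction started with 50 nM substrate and read at 0 and 15 min. Corrected, normalized data were fitted by a four-parameter Hill equation.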
% is set by controls: 0 for no effect and ±100 for the full control effect; potency is the fitted concentration of half-maximal effect; tags give direction and shape of the fitted curve.

**Q.** `CCC1(OC(=O)CN(C)C)C(=O)OCc2c1cc1n(c2=O)Cc2cc3c(N)cccc3nc2-1` (centres undefined) was tested. Which Potency did it give?
**A.** inconclusive: 28.2 µM [inhibitor, partial curve, poor fit]

**Q.** How did the “activity change, negative = inhibition” value turn out when `O=S(=O)(Nc1c(Br)cc(Br)c2cccnc12)C1CCCCC1` was run?
**A.** inactive: 0.869%

**Q.** For `O=C(Nc1nc2nc(-c3ccccc3)cc(=O)n2[nH]1)c1ccc(F)cc1`, which “activity change, negative = inhibition” value is on record?
**A.** inactive: 13.3%

**Q.** How did the Potency turn out when `CCOC(=O)c1ccccc1NC1(c2ccc(OC)cc2)C(=O)c2ccccc2C1=O` was run?
**A.** inconclusive: 79.4 µM [inhibitor, single point]

**Q.** `CC(=O)Nc1ccc(C(=O)CSc2nnc3cc(C)c4ccccc4n23)cc1` was tested. Which “activity change, negative = inhibition” value did it give?
**A.** inactive: -1.46%

**Q.** With `CCOc1ccc(S(=O)(=O)Nc2ccc3c(c2)c(C(C)=O)c(C)n3S(=O)(=O)c2ccc(OCC)cc2)cc1` as the compound, how does the Potency read?
**A.** inconclusive: 79.4 µM [inhibitor, partial curve, poor fit]

**Q.** For `Cc1nc2nc(C)c(CCC(=O)NCCCN3CCN(c4cccc(Cl)c4)CC3)c(C)n2n1`, which Potency is on record?
**A.** inactive

**Q.** With `COC(=O)c1c(NC(=O)C(=O)N2CCOCC2)sc2c1CCC2` as the compound, how does the Potency read?
**A.** inconclusive: 89.1 µM [inhibitor, partial curve, poor fit]

**Q.** With `N#Cc1c(NC(=O)/C=C/C(=O)O)sc2c1CCN(Cc1ccccc1)C2` as the compound, how does the “activity change, negative = inhibition” value read?
**A.** inactive: -29.1%

**Q.** For `NC1=NC(=O)/C(=C/c2ccc(-c3ccc(S(N)(=O)=O)cc3)o2)S1`, which Potency is on record?
**A.** inconclusive: 79.4 µM [inhibitor, partial curve]

**Q.** `CN(C)c1ccc(C(=C2C=CC(=[N+](C)C)C=C2)c2c(O)c(S(=O)(=O)[O-])cc3cc(S(=O)(=O)O)ccc23)cc1` was tested. Which Potency did it give?
**A.** active: 44.7 µM

**Q.** With `c1csc(-c2nc3c4ccccc4c4ccccc4c3[nH]2)c1` as the compound, how does the Potency read?
**A.** inconclusive: 25.1 µM [inhibitor, partial curve, poor fit]

**Q.** For `COC(=O)c1ccccc1NC1=C/C(=N\S(=O)(=O)c2ccc(C(=O)O)cc2)c2ccccc2C1=O`, which Potency is on record?
**A.** active: 20 µM

**Q.** How did the “activity change, negative = inhibition” value turn out when `CCCN1C(=O)c2ccccc2NC1c1ccc(OC)c(COc2ccc([N+](=O)[O-])cc2)c1` (centres undefined) was run?
**A.** inactive: -19.7%

**Q.** Which “activity change, negative = inhibition” value does the source give for `Cc1ccc(N(CCC#N)C(=O)CSc2ccc3c(c2)OCCO3)cc1` here?
**A.** inactive: 3.66%

**Q.** Which Potency does the source give for `CCOC(=O)Cc1nnc(NC(=O)CSc2nnc3c4ccccc4n(C)c3n2)s1` here?
**A.** inconclusive: 63.1 µM [inhibitor, partial curve, poor fit]

**Q.** `Cc1ccc(-n2sc3ccccc3c2=O)cc1S(=O)(=O)N1CCCCC1` was tested. Which Potency did it give?
**A.** inconclusive: 89.1 µM [inhibitor, single point]

**Q.** `Cn1nc(-c2ccc(Cl)cc2)c2cc(C(=O)NCC3CCCO3)sc21` (centres undefined) was tested. Which Potency did it give?
**A.** inconclusive: 56.2 µM [inhibitor, partial curve, poor fit]

**Q.** How did the “activity change, negative = inhibition” value turn out when `O=Cc1ccc(Cl)cc1` was run?
**A.** inactive: -12.6%

**Q.** Which Potency does the source give for `CNc1ccc(/C=C2\C=Cc3ccccc32)cc1Br` here?
**A.** inconclusive: 56.2 µM [inhibitor, partial curve, poor fit]

**Q.** How did the Potency turn out when `O=C(CCl)N1c2ccccc2Oc2ccc3ccccc3c21` was run?
**A.** inconclusive: 44.7 µM [inhibitor, partial curve]

**Q.** How did the Potency turn out when `CCOC(=O)c1c(C)[nH]c(C)c1C(=O)COC(=O)c1cc2ccccc2cc1O` was run?
**A.** inconclusive: 35.5 µM [inhibitor, partial curve, poor fit]

**Q.** Which “activity change, negative = inhibition” value does the source give for `CCCCCn1c(=O)[nH]c2cc(C(=O)NCc3ccc(C)cc3)ccc2c1=O` here?
**A.** inactive: -25.4%

**Q.** With `COc1ccc(C(=O)NCC(=O)OCc2cc(=O)n3nc(C4CCCCC4)sc3n2)cc1` as the compound, how does the “activity change, negative = inhibition” value read?
**A.** inactive: 18.6%

**Q.** For `Cc1nc(NC(=O)/C=C/c2ccco2)sc1C`, which “activity change, negative = inhibition” value is on record?
**A.** inactive: 1.09%

**Q.** For `CCOc1cc(C#N)c(NC(=O)c2ccc(OC)c(S(=O)(=O)N3CCCCC3)c2)cc1OCC`, which “activity change, negative = inhibition” value is on record?
**A.** inactive: -13.9%

**Q.** With `COc1cc(N=c2ssnc2Cl)c(OC)cc1Cl` as the compound, how does the Potency read?
**A.** inconclusive: 79.4 µM [inhibitor, partial curve, poor fit] and inconclusive: 89.1 µM [inhibitor, single point]

**Q.** `O=C(C1CCCCC1)N(Cc1cccnc1)c1nc2ccc(Cl)cc2s1` was tested. Which “activity change, negative = inhibition” value did it give?
**A.** inactive: -16.8%

**Q.** How did the Potency turn out when `CCOc1ccc(CN(CCc2ccc3c(c2)OCO3)Cc2cc(OC)cc(OC)c2)cc1` was run?
**A.** inconclusive: 89.1 µM [inhibitor, partial curve, poor fit]

**Q.** How did the “activity change, negative = inhibition” value turn out when `Cc1[nH]c2ccccc2c1/C=C/c1c(C)[nH]c2ccccc12` was run?
**A.** inactive: -4.35%

**Q.** With `CC(C)(C)c1cc(C(c2cccnc2)N2CCN(CCO)CC2)cc(C(C)(C)C)c1O` (centres undefined) as the compound, how does the Potency read?
**A.** inconclusive: 50.1 µM [inhibitor, partial curve, poor fit]

**Q.** With `O=c1c2ccccc2sn1-c1ccc(S(=O)(=O)N2CCCC2)cc1` as the compound, how does the Potency read?
**A.** inconclusive: 89.1 µM [inhibitor, single point]

**Q.** For `CC(C)(C)OC(=O)C[C@@H]1C/C=C\C[C@H](CC(=O)N(CCO)Cc2ccccc2)C(=O)NCCOC1=O`, which “activity change, negative = inhibition” value is on record?
**A.** inactive: 7.42%

**Q.** Which Potency does the source give for `O=C1c2ccccc2-c2onc3ccc(N4CCCC4)c1c23` here?
**A.** active: 22.4 µM

**Q.** How did the Potency turn out when `CC(C)C[C@H](NC(=O)c1nc[nH]c1C(=O)NCc1ccc(CNC(=O)OC(C)(C)C)cc1)C(=O)OCc1ccccc1` was run?
**A.** inconclusive: 56.2 µM [inhibitor, partial curve, poor fit]

**Q.** How did the Potency turn out when `CC(C)S(=O)(=O)C1=NSC2=NC(=O)/C(=C\c3ccc(-c4ccccc4)o3)C(=N)N21` was run?
**A.** inconclusive: 56.2 µM [inhibitor, partial curve, poor fit]

**Q.** With `O=C(O)c1ccc(COc2ccc3ccccc3c2/C=C2/NC(=O)N(Cc3ccc(F)cc3)C2=O)cc1` as the compound, how does the Potency read?
**A.** inconclusive: 79.4 µM [inhibitor, partial curve]

**Q.** `COc1ccc(OC)c(Nc2nc(-c3ccc(O)c(O)c3)cs2)c1` was tested. Which Potency did it give?
**A.** inconclusive: 17.8 µM [inhibitor, partial curve, poor fit]

**Q.** `CC(C)C[C@H](NC(=O)c1nc[nH]c1C(=O)NC1CCN(C(=O)OC(C)(C)C)CC1)C(=O)OCc1ccccc1` was tested. Which Potency did it give?
**A.** inconclusive: 50.1 µM [inhibitor, partial curve, poor fit]

**Q.** For `COc1ccc(CCNC(=O)c2ccc3nc(-c4ccco4)c(-c4ccco4)nc3c2)cc1OC`, which Potency is on record?
**A.** inconclusive: 56.2 µM [inhibitor, partial curve, poor fit]

**Q.** Which Potency does the source give for `CCN(c1ccccc1)c1ncnc2c1cnn2-c1ccc(OC)cc1` here?
**A.** inconclusive: 89.1 µM [inhibitor, partial curve, poor fit]

**Q.** How did the “activity change, negative = inhibition” value turn out when `Cc1ccc(S(=O)(=O)c2ncccc2[N+](=O)[O-])cc1` was run?
**A.** inactive: -4.4%

**Q.** How did the Potency turn out when `Cc1ccc(NC(=O)N/C=C/c2ccco2)c(C)c1` was run?
**A.** inconclusive: 89.1 µM [inhibitor, partial curve, poor fit]

**Q.** For `O=C(COC(=O)c1ccccc1O)Nc1ncc(Cl)cc1Cl`, which Potency is on record?
**A.** inconclusive: 89.1 µM [inhibitor, single point]

**Q.** `O=C(COc1cccnc1[N+](=O)[O-])c1ccc(Cl)s1` was tested. Which Potency did it give?
**A.** inconclusive: 79.4 µM [inhibitor, partial curve]

**Q.** With `CC(C)OC(=O)c1c2c(n3ccccc13)C(=O)c1ccccc1C2=O` as the compound, how does the Potency read?
**A.** inconclusive: 28.2 µM [inhibitor, partial curve, poor fit]

**Q.** Which Potency does the source give for `COc1ccc(NC(=O)c2ccco2)cc1NC(=O)c1cccc(C)c1OC` here?
**A.** inconclusive: 70.8 µM [inhibitor, single point]

**Q.** With `COc1ccc(C2N=C(N)N=C(N)N2c2ccc(C)cc2)cc1` (centres undefined) as the compound, how does the “activity change, negative = inhibition” value read?
**A.** inactive: 0.426%

**Q.** For `CCN(CC)CCNC(=O)c1cc2c(-c3ccc(Cl)cc3)nn(C)c2s1`, which Potency is on record?
**A.** active: 28.2 µM

**Q.** `COc1ccc(-n2cc3c(-c4cccc(Br)c4)nnc(C)c3n2)cc1` was tested. Which Potency did it give?
**A.** active: 79.4 µM

**Q.** Which Potency does the source give for `COc1cc(/C=C2/C(=N)N3C(=NC2=O)SN=C3S(C)(=O)=O)ccc1OC(=O)c1ccco1` here?
**A.** inconclusive: 17.8 µM [inhibitor, partial curve, poor fit]

**Q.** `O=C(N=NC(=O)c1ccco1)c1ccc2c(O)n(N3C(=O)c4ccccc4C3=O)c(O)c2c1` was tested. Which “activity change, negative = inhibition” value did it give?
**A.** inactive: -8.92%

**Q.** How did the Potency turn out when `CC(=O)OC1(C(F)(F)F)Oc2ccccc2NC1=O` (centres undefined) was run?
**A.** inconclusive: 89.1 µM [inhibitor, partial curve, poor fit]

**Q.** For `COc1c(OC(C)=O)ccc(/C=N\NC(=O)c2ccc(Br)cc2)c1[N+](=O)[O-]`, which Potency is on record?
**A.** inconclusive: 17.8 µM [inhibitor, partial curve, poor fit]

**Q.** Which Potency does the source give for `Cc1ccc(C)c(-n2c3nc(=O)[nH]c(=O)c-3cc3cc([N+](=O)[O-])ccc32)c1` here?
**A.** inconclusive: 50.1 µM [inhibitor, partial curve]

**Q.** With `CCC(C)n1c(SCC(=O)NC(=O)Nc2ccc3c(c2)OCCO3)nc2ccccc2c1=O` (centres undefined) as the compound, how does the Potency read?
**A.** inconclusive: 79.4 µM [inhibitor, partial curve, poor fit]

**Q.** Which “activity change, negative = inhibition” value does the source give for `COc1cc(Nc2ncc3c(n2)CCN(Cc2cc(F)cc(F)c2)C3)cc(OC)c1` here?
**A.** inactive: -16.3%

**Q.** With `COc1cc(/C=C/[N+](=O)[O-])ccc1OCc1cccc(C(=O)O)c1` as the compound, how does the Potency read?
**A.** active: 50.1 µM

**Q.** How did the Potency turn out when `N#C/C(=C(/O)CCl)c1nc2c(s1)CCc1ccccc1-2` was run?
**A.** inconclusive: 56.2 µM [inhibitor, partial curve, poor fit]

**Q.** For `CCOc1ccc(CCNC(=O)c2ccc3c(c2)sc2nc(-c4ccc(F)cc4)cn23)cc1OCC`, which Potency is on record?
**A.** inconclusive: 89.1 µM [inhibitor, single point]

**Q.** Which “activity change, negative = inhibition” value does the source give for `COc1ccc(-c2nc(-c3ccccc3)c(-c3ccc(F)cc3)[nH]2)c(OC)c1C` here?
**A.** inactive: -0.195%

**Q.** Which Potency does the source give for `O=C(Nc1cc(C(=O)Nc2ccccc2C(=O)O)cc(C(=O)Nc2ccccc2C(=O)O)c1)c1ccccc1` here?
**A.** active: 25.1 µM

**Q.** For `C[C@H](NC(N)=O)C(=O)Nc1ccc(N2CCOCC2)c(S(=O)(=O)Nc2ccc(Cl)cc2)c1`, which Potency is on record?
**A.** inconclusive: 89.1 µM [inhibitor, single point]

**Q.** `C=CCn1c(N)c(C(=O)Nc2cccc(C)c2)c2nc3ccccc3nc21` was tested. Which Potency did it give?
**A.** inconclusive: 79.4 µM [inhibitor, partial curve, poor fit]
